Experimental data reported in patent US20200390902A1, “Antibody-Drug Conjugates Targeted at Human Aspartyl-(Asparaginyl)-B-Hydroxylase (HAAH)” (Panacea Pharmaceuticals, Inc., priority 2017, published 2020).

Columns and labels:
[1] = system: MOLM-14 cells; test: MTS cell viability assay, MOLM-14; assay type: cell-based, human; settings: MOLM-14, 24 hours
Procedure: Human H460 cells were obtained from the American Type Culture Collection (ATCC; Manassas, Va., U.S.A.). […] Human MOLM-14 cells were obtained from Dr. Ashkan Emadi at University of Maryland (Baltimore. Md., U.S.A.). The MOLM-14 cells were seeded at a density of 5000 cells/well in 96-well plates and cultured in RPMI 1640 with 20% heat-inactivated FBS. The H460 and MOLM-14 cells were treated with naked antibodies or ADCs for 24 hours, starting at the time of cell seeding. By the end of experiment, the cell viability for both cell lines was determined quantitatively using CELL TITER 96 AQUOUS ONE SOLUTION cell proliferation assay, a colorimetric method for determining the number of viable cells (MTS; Promega, Madison. Wis., U.S.A.; Catalog No. G3582).

[2] = biological target: T1, H460 lysate (Homo sapiens, UniProt Q12797); test: Binding of naked antibodies and ADCs to H460 lysate
T1 construct: A 96-well plate was coated with H460 lysate and dried at room temperature overnight; endogenous in cells; host or cells: H460 lysate (sonicated, supernatant)
T1 sequence (Q12797 1-758): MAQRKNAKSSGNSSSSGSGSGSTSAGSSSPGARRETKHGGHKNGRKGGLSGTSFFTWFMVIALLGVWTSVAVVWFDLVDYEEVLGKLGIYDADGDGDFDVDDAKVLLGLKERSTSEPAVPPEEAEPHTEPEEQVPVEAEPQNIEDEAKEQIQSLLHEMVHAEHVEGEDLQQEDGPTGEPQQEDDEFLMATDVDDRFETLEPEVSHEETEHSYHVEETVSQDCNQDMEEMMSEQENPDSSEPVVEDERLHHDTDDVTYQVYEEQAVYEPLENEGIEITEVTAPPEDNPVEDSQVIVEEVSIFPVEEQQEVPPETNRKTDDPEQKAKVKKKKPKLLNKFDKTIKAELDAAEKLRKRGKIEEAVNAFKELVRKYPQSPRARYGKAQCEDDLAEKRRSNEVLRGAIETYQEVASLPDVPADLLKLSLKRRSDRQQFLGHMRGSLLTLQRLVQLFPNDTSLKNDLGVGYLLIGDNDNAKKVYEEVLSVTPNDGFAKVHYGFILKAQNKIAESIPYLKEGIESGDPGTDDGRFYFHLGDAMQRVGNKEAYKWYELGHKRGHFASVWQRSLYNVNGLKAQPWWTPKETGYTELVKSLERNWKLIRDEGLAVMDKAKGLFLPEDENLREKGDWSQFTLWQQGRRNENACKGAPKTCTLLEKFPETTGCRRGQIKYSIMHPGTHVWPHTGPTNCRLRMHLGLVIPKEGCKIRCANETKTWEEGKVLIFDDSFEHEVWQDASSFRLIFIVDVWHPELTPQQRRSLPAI
Procedure: H460 cells were harvested, the cell density was adjusted to 2×10^6 cells/ml with PBS, and the resuspended cells sonicated on ice twice in 30 second pulses. After centrifugation at 300×g for 5 minutes the supernatant was collected and the protein concentration measured using a NANODROP spectrophotometer (ThermoFisher Scientific). A 96-well plate was coated with H460 lysate and dried at room temperature overnight. Following a 1-hour blockage with 1% non-fat dry milk in phosphate buffered saline (PBS), the plates were incubated for 45 minutes at 37° C. with each either 0.5 μg/ml IgG1λ (non-specific monoclonal antibody), IgG1λ-MC-DM1 (non-specific ADC), or SNS622-MC-DM1, or with 5 μg/ml SNS622. Following five PBS rinses to remove un-bound antibody. 1:100 goat anti-human IgG (8)-HRP was added and the plates incubated for 30 minutes at 37° C. Following five PBS rinses TMB substrate was added and, after incubation of the plates for 15 minutes at room temperature. Stop solution was added to terminate the reactions. The plates were read at 450 nm using a 96-well plate reader (ELx808, BioTek).

[3] = system: HAAH catalytic domain (HAAH-cat); test: Binding to HAAH catalytic domain (HAAH-cat); set-up: species or system human; settings: plates coated with HAAH catalytic domain
Procedure: The catalytic domain of HAAH (HAAH-cat) is exposed at the surface of HAAH-expressing cancer cells. The binding of SNS622-MC-DM1 at different drug-antibody ratio (DAR) and pH to HAAH-cat was measured using IgG1λ as control. The plates were coated with HAAH by treating with […] HAAH catalytic domain overnight. Following blocking with 1% Non-Fat Dry Milk in PBS for one hour, the plates were incubated for 45 minutes at 37° C. with 11.1 mg/ml IgG1λ; 9.6 mg/ml SNS622; 4.8 mg/ml SNS622-MC-DM1 at DAR 2.5, pH 7.0; 5.9 mg/ml SNS622-MC-DM1 at DAR 2.5, pH8.0; 6.1 mg/ml SNS622-DM1 at DAR 5.0, pH 7.0; 5.7 mg/ml SNS622-MC-DM1 at DAR 5.0, pH8.0; 4.1 mg/ml SNS622-DM1 at DAR 10.0, pH7.0; or 4.4 mg/ml SNS622-MC-DM1 at DAR 10.0, pH8.0. Following 5 PBS rinses the plates were incubated with 1:100 goat anti-human IgG (8)-HRP for 30 minutes at 37° C., Following five PBS rinses TMB substrate was added, and after a 15-minute incubation at room temperature, Stop solution was added to terminate the reactions. The plates were read at 450 nm using a 96-well plate reader (ELx808, BioTek). The binding results are shown below in Table VI

[4] = biological target: T2, HAAH (Homo sapiens, UniProt Q12797); settings: live cells; previously shown; read-out: Affinity for HAAH as expressed on live cells; cited from earlier work
T2 construct: endogenous in cells; host or cells: H460 (fixed)
T2 sequence (Q12797 1-758): T1 sequence (Q12797 1-758)

Percent binding ([2]; percent of loading amount bound): 92%
Binding amount ([2]; sonicated H460 (2E^6 cells/ml), loading 5.0 or 0.5 μg/ml): 0.46 µg/mL
% Binding [3]: ~98%
[Average]* (mg/ml) bound [3]: 9.32 mg/mL
B1: SNS622: high-affinity, fully-humanized monoclonal antibody against human aspartyl (asparaginyl) beta-hydroxylase; SEQ ID NO: 1 and 2 (antibody)
heavy: QVQLQQSGPGLVKPSQTLSLTCAISGDSVSSNSAAWNWIRQSPSRGLEWLGRTYYRSKWYNDYAVSVKSRITINPDTSKNQFSLQLNSVTPEDTAVYYCARTGYSSSWVVNFDYWGQGTLVTVSSASTKGPSVFPLAPSSKSTSGGTAALGCLVKDYFPEPVTVSWNSGALTSGVHTFPAVLQSSGLYSLSSVVTVPSSSLGTQTYICNVNHKPSNTKVDKRV[human IgG1 Fc left out]
light: QPVLTQSPSASGTPGQRVTISCSGSSSNIGSNYVYWYQQLPGTAPKLLIYKNNQRPSGVPDRFSGSKSGTAASLAISGLQSEDEADYYCAAWDDSLRGYVFGTGTKLTVLGQPKAAPSVTLFPPSSEELQANKATLVCLISDFYPGAVTVAWKADSSPVKAGVETTTPSKQSNNKYAASSYLSLTPEQWKSHRSYSCQVTHEGSTVEKTVAPTECS
modifications: Heavy Chain; Light Chain
Effect on MOLM-14 cell viability / growth (MTS) [1]: did not suppress the in vitro growth of MOLM-14; also recorded: little to no changes in MOLM-14 cell viability
Kd [4]: ~1 nM

Entries after “also recorded” stand apart in the source; their conditions may differ.
